# Measured values: PubChem BioAssay AID1030 (National Center for Advancing Translational Sciences (NCATS), 2008)
# Among all 220,000 compounds or so, about 16,000 (7.3%) were called active. The inconclusive results got no clear call from the source; some entries with a clear call stand among them for comparison. The call rests on the fitted dose curve; in most records, active means well fitted inhibition curve with a large enough effect (not every such curve was filed as active); inconclusive means small, poorly fitted or top-dose-only effect, or another doubt; inactive means no such curve, though single readings can be large or run the other way. Potencies of inconclusive entries are left out as doubtful fits.
# Molecular target: Aldehyde dehydrogenase 1A1 (Homo sapiens) (UniProt P00352)
# Experiment: qHTS Assay for Inhibitors of Aldehyde Dehydrogenase 1 (ALDH1A1);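 on activity, negative = inhibition: plate controls were no enzyme wells and a reference inhibitor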
# Details: Purified ALDH1A1, NADH fluorescence, propionaldehyde substrate; series mostly up to 75.3 µM; activity, negative = inhibition: at the top concentration
# Potency means the concentration at half of the fitted maximal effect; tags describe the fitted curve by direction and shape.
# Chain of UniProt P00352 (P00352 whole entry, looked up): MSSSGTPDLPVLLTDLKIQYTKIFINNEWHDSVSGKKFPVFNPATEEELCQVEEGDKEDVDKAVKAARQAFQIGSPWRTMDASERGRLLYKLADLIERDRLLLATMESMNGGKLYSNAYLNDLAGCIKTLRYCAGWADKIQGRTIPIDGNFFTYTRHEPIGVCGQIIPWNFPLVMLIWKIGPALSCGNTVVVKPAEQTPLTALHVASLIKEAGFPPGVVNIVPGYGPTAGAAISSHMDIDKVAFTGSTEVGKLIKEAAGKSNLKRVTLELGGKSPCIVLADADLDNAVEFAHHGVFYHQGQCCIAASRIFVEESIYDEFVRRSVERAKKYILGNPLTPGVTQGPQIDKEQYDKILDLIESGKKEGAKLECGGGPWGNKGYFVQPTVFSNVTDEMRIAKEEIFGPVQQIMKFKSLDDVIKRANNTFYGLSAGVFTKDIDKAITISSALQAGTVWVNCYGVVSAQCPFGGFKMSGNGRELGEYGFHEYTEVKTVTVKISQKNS
SMILES,Potency,"activity, negative = inhibition"
Cc1cc(=O)n2[nH]c(-c3ccc(F)cc3)cc2n1,"inconclusive [inhibitor, single point]",–
CCOC(=O)c1c(NC(=O)c2nn(CC)cc2Br)sc(C)c1C,"inconclusive [inhibitor, partial curve]",–
COc1ccccc1OCc1ccc(C(=O)Nc2ccc(Cl)cn2)o1,–,inactive: -2.73%
O=C(OC1CCOC1=O)c1cc(-c2cccc(Br)c2)nc2ccccc12 (stereo not given),–,inactive: -4.88%
Cc1cc(C)c2nc(-c3ccccn3)cc(C(=O)NCc3cc(C)n(C)n3)c2c1,"inconclusive [inhibitor, partial curve]",–
COc1ccc2[nH]c(=O)c(CN(C(C)=O)C3CCCCC3)cc2c1,"inconclusive [inhibitor, single point]",–
CC1(C)C(c2cccs2)=[N+]([O-])C2(CCCCC/C2=N\NC(N)=S)N1O (stereo not given),–,inactive: -3.03%
COc1ccc(C2CC(c3ccc(Br)cc3)=NN2C(=S)Nc2ccccc2)cc1 (stereo not given),active: 11.2 µM,–
CCOc1cc(S(=O)(=O)NC2CCCCCC2)ccc1F,active: 3.16 µM,–
CC[C@H](C)[C@@H](NC(=O)O[C@@H]1Cc2cc(OC)ccc2O[C@H]1c1cccc(OC)c1)C(=O)OC,–,inactive: 3.92%
COc1cc(S(=O)(=O)N(Cc2ccccc2)Cc2ccccn2)ccc1-n1cnnn1,"inconclusive [inhibitor, partial curve]",–
Cc1ccc(O)c(/C=N/NC(=O)c2[nH]ncc2Br)c1,–,inactive: 6.91%
N#Cc1c(N2CCCCC2)nc(N)c2c(N)nc3c(c12)CC(CCl)O3 (stereo not given),"inconclusive [inhibitor, partial curve]",–
O=Cc1c(Sc2ccccc2)nc2ccccn2c1=O,"inconclusive [inhibitor, full curve, poor fit]",–
O=C(O)Cc1sc(Nc2ccc(F)cc2)nc1-c1cccs1,"inconclusive [inhibitor, single point]",–
CCn1c(=O)cc(C(=O)OC)sc1=Nc1ccc(F)c(F)c1,–,inactive: -14.9%
CCc1nnc(NC(=O)C2Cc3ccccc3CN2S(=O)(=O)c2c(C)c(C)cc(C)c2C)s1 (stereo not given),–,inactive: -9.03%
CCN(CC)S(=O)(=O)c1ccc(NC(=O)c2ccccc2N(C)S(C)(=O)=O)cc1,–,inactive: 5.13%
CNc1nc(C23CC4CC(CC(C4)C2)C3)cs1,"inconclusive [inhibitor, single point]",–
COc1cc2[nH]c3c(=O)n4c(nc3c2cc1OC)SCCC4,"inconclusive [inhibitor, partial curve]",–
O=C(CN1CCOc2ccccc21)NCc1ccco1,active: 11.2 µM,–
COC(=O)c1cc2oc(C)cc2n1CC(=O)N(C)c1ccccc1,–,inactive: -10.1%
O=S(=O)(Nc1nc2ccccc2s1)c1cnc(Cl)c(Br)c1,active: 20 µM,–

SMILES,Potency,"activity, negative = inhibition"
CCCCCCc1nc2ccccc2c(=O)n1NC(=O)c1c(O)c2cccc3c2n(c1=O)CCC3,–,inactive: 1.52%
Cc1cccc(CC(=O)NCCn2c(C)cc3ccccc32)c1,"inconclusive [inhibitor, single point]",–
Cc1ccc(-n2c(=O)c3sccc3n(Cc3cc(=O)n4cc(Cl)ccc4n3)c2=O)cc1F,–,inactive: -4.25%
O=C(Cc1cn(Cc2cccc(Cl)c2)c2ccccc12)N1CCCC1,"inconclusive [inhibitor, partial curve, poor fit]",–
O=Cc1cccn1-c1cccc([N+](=O)[O-])c1,"inconclusive [inhibitor, partial curve]",–
CNC(=S)N1CCn2cccc2C1c1cc(OC)c(OC)c(OC)c1 (stereo not given),"inconclusive [inhibitor, single point]",–
CCOC(=O)C1=C(C)N=C2SCCC(=O)N2[C@@H]1/C=C/c1ccccc1,"inconclusive [inhibitor, single point]",–
CO[C@H]1COC(=O)[C@H]2CCCN2C(=O)C/C=C\[C@@H](C)[C@H](OC)COC(=O)C/C=C\[C@@H]1C,–,inactive: 6.43% [at 13.5 µM]
Cc1ccc(NC(=O)Cn2c(=O)n(CCCCC(=O)NCc3ccco3)c(=O)c3ccccc32)cc1,"inconclusive [inhibitor, single point]",–
Cc1nn(CC(O)COc2ccc3c(c2)CCC3)c(C)c1Br (stereo not given),"inconclusive [inhibitor, single point]",–
Cc1ccc(NC(=O)NNC(=O)C2CC(c3cccnc3)=NO2)cc1 (stereo not given),"inconclusive [inhibitor, single point]",–
O=C(NCc1ccccc1)C(Cc1ccccc1)N1C(=O)C2C3CCC(C3)C2C1=O (stereo not given),"inconclusive [inhibitor, partial curve]",–
O=C(O)CN1C(=O)c2ccc(Oc3cccc4c3C(=O)N(CC(=O)O)C4=O)cc2C1=O,–,inactive: -0.445%
N#CCCN(C(=O)CSc1ccc2c(c1)OCCO2)c1ccc(F)cc1,"inconclusive [inhibitor, single point]",–
O=C(Nc1cccc(C(F)(F)F)c1)c1cccnc1NCCc1ccccc1,"inconclusive [inhibitor, single point]",–
CN(C)c1nc(NCc2ccccc2)nc(N/N=C/c2ccc(Cl)cc2Cl)n1,–,inactive: 11.7%
O=C(Nc1ccccc1)Nc1cccn(Cc2c(F)cccc2Cl)c1=O,"inconclusive [inhibitor, partial curve]",–
CCOc1ccc(S(=O)(=O)Nc2ccc3c(c2)OCO3)c2cccnc12,–,inactive: -3.58%
CC(C)Oc1ccc(/C=C(/NC(=O)c2ccccc2)C(=O)NCCC(=O)O)cc1,"inconclusive [inhibitor, partial curve]",–
COc1ccc(C(=O)N2C(=S)NC(=O)/C2=C\c2ccc(C)cc2)cc1,"inconclusive [inhibitor, single point]",–
COc1ccc(-c2nn(-c3ccccc3)cc2/C=N/NC(=O)c2ccc3c(c2)OCO3)cc1,"inconclusive [inhibitor, single point]",–
CCCOC(=O)C1=C(C)NC2=C(C(=O)CCC2)C1c1ccc(N(C)C)cc1 (stereo not given),"inconclusive [inhibitor, single point]",–
